# In all, about 310,000 compounds went through this assay and about 14,000 (4.5%) showed an effect of 50% or more. Effects have a minus sign here. Some of the results follow.
# Biological target: human ether-à-go-go-related gene (hERG) potassium channel (human, UniProt Q12809)
# Test: primary screen, population patch clamp on CHO cells stably expressing hERG
# 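Further: peak tail current of the secondary pulse compared with the same well before compound.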
# human ether-à-go-go-related gene (hERG) potassium channel, sequence (Q12809 whole entry, looked up): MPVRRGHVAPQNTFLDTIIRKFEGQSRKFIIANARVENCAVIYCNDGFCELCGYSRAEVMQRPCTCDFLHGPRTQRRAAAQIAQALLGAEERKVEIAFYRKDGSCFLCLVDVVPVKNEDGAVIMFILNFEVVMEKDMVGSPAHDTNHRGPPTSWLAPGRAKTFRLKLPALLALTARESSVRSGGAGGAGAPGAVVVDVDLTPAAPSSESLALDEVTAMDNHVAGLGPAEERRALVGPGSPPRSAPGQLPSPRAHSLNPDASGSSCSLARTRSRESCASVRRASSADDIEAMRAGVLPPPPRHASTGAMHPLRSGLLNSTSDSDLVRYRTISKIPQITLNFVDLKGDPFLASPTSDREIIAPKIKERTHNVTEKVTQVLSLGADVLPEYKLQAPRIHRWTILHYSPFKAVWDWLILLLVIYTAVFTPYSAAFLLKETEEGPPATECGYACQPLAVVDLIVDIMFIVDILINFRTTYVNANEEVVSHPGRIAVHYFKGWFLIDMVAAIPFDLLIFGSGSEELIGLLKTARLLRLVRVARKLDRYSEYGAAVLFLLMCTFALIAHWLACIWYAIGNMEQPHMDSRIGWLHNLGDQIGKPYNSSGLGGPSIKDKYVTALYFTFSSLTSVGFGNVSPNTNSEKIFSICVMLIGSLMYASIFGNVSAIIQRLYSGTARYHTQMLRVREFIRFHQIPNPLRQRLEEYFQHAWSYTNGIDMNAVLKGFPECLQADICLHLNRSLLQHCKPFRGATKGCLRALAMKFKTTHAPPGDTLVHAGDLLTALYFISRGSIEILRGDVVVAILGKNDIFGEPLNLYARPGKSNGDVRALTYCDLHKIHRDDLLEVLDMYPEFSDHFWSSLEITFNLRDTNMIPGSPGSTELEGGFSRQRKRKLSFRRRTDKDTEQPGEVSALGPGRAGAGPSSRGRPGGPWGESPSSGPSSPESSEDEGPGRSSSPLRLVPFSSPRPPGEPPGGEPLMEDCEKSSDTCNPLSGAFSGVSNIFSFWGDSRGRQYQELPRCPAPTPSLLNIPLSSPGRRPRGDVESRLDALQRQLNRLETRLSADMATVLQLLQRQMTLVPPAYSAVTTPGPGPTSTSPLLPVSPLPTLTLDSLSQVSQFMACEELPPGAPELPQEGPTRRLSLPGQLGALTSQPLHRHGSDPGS
row,SMILES,"hERG current change (%, negative = inhibition) at 10uM"
1,COc1ccccc1CNC(=O)CSc1n[nH]c(N)n1,27.1%
2,CC(OC(=O)CCCC(=O)Nc1ccccc1)C(=O)c1ccccc1 (centres unmarked),6.63%
3,CCCCN(CC)CCCNC(=O)C1c2ccccc2C(=O)N(C)C1c1cn(C)c2ccccc12 (centres unmarked),-72.7%
4,CCN(CC)C(=O)CSc1nnc(-c2cc(OC)cc(OC)c2)o1,-3.88%
5,CC(C)(C)n1nnnc1C(c1ccncc1)N(Cc1ccccc1)Cc1ccco1 (centres unmarked),-25.8%
6,O=Cc1ccc(-c2cccc([N+](=O)[O-])c2)o1,-18.6%
7,CCCCN1CCNC1=S,15.8%
8,COc1ccc(N(C(=O)CNC(=O)c2ccco2)C(C(=O)NC2CCCC2)c2ccncc2)cc1 (centres unmarked),13.1%
9,Cc1csc(=O)n1CC(=O)OCC(=O)NNC(=O)c1ccc([N+](=O)[O-])cc1,0.832%
10,NC(=O)C1CCN(c2ncccc2[N+](=O)[O-])CC1,5.61%
11,O=C(Nc1cc(Cl)ccc1C(=O)O)c1ccc(CN2C(=O)c3ccccc3C2=O)cc1,20.7%
12,Cc1cc(C)c(OCCOCCN2CCN(C)CC2)c(Cl)c1.O=C(O)C(=O)O,-5.21%
13,CN1N=C(c2ccc(F)c(F)c2)CSC1=NCc1ccccc1,4.52%
14,COC(=O)c1c(-n2cnnn2)sc(C)c1C,6.69%
15,CCC(NC(=O)c1cc(COc2c(F)cccc2F)on1)c1ccncc1 (centres unmarked),-5.19%
16,O=C(N/C(=C\c1ccc2c(c1)OCO2)C(=O)N1CCOCC1)c1ccccc1Br,2.88%
17,CCCn1c(=O)c(C(=O)NCC2CCCO2)c(O)c2ccccc21 (centres unmarked),-19%
18,Cc1ccccc1-n1c(C)nc2ccsc2c1=O.Cl,9.62%
19,S=C(NCc1ccccc1)N1CCN(Cc2ccc3c(c2)OCO3)CC1,-16.7%
20,COc1nccnc1NS(=O)(=O)c1ccc(N=Cc2c(C)[nH]n(-c3ccccc3)c2=O)cc1,16.6%
21,CC(=O)Nc1nc(C)c(S(N)(=O)=O)s1,-20.2%
22,Cc1ccc(S(=O)(=O)NCC(=O)N(CC(=O)NCc2ccco2)Cc2ccco2)cc1,-23.5%

row,SMILES,"hERG current change (%, negative = inhibition) at 10uM"
1,CCCc1cc(=O)n2[nH]c(-c3ccc(Br)cc3)cc2n1,-10.5%
2,COc1ccc(NC(=O)Cn2cc(C#N)c3ccccc32)cc1,15.3%
3,COc1cc(CN2CCCC(C(=O)Nc3cccc(-n4cccn4)c3)C2)ccc1F (centres unmarked),-49.3%
4,CC1=NOC2(C)Nc3ncnn3C(c3ccccc3)C12 (centres unmarked),-14.3%
5,COc1ccc(OC)c(S(=O)(=O)N2CCN(C34CC5CC(CC(C5)C3)C4)CC2)c1,-22.9%
6,COc1ccc(C2C(C#N)=C(N)Oc3n[nH]c(C)c32)cc1Cn1cc([N+](=O)[O-])cn1 (centres unmarked),-14%
7,Cc1cc(NC(=O)Cn2nc(C(=O)O)c3ccccc3c2=O)c([N+](=O)[O-])cc1C,21.7%
8,CCN(CC(=O)NCc1ccc(F)cc1)S(=O)(=O)c1ccc(C)cc1,-43.6%
9,CCn1c(CNS(=O)(=O)c2ccc(Cl)cc2)n[nH]c1=S,22.2%
10,Cc1ccc(N(CC(=O)NCCSCc2ccco2)S(C)(=O)=O)cc1,0.889%
11,CC1(C)CC(=O)C2=C(C1)N(c1cccc(Cl)c1)C(=O)NC2(C(F)(F)F)C(F)(F)F,2.04%
12,COc1cc(CCCN2C(=O)C(=O)NC[C@@H]2CCCCN)cc(OC)c1OC,20.1%
13,Cc1cc(=O)[nH]c(N/N=C/c2cc(C)n(-c3ccccc3)c2C)n1,13.8%
14,Cc1ccc(-c2nnc(NC3CCCCC3)c3ccccc23)cc1S(=O)(=O)N1CCN(C)CC1,-54.6%
15,O=C(NCCCN1CCOCC1)c1ccccc1N1C(=O)[C@@H]2Cc3c([nH]c4ccccc34)C(c3ccc(F)cc3)N2C1=O (some centres unmarked),-68%
16,O=c1oc(C2(O)CCCCC2)cc2ccc(Br)cc12,20.1%
17,CCn1cc(S(=O)(=O)N2CCN(Cc3cccc(Cl)c3)CC2)cn1,-2.04%
18,O=C(OCc1ccc(-c2ccccc2)cc1)c1cccc(O)c1,12.5%
19,COc1ccc(C2=NOC(Cn3nc(C(=O)O)cc3-c3ccccc3)C2)cc1 (centres unmarked),-10.3%
20,Cc1ccc(N(CC(=O)NCc2ccco2)C(=O)CNS(=O)(=O)c2ccccc2)c(C)c1,-5.25%
21,CC(C)CC(=O)Nc1nnc(S(=O)(=O)N(C)Cc2ccco2)s1,22.9%
22,O=C(COc1cccnc1[N+](=O)[O-])NCc1cccs1,-10.9%

row,SMILES,"hERG current change (%, negative = inhibition) at 10uM"
1,CC(C)NC(=O)c1cc(C(=O)c2cc(Cl)ccc2O)coc1=N,-3.22%
2,CC1CCN(C(=O)C(NS(=O)(=O)c2cccc3nsnc23)C(C)C)CC1 (centres unmarked),-5.48%
3,O=C(N/C(=C\c1ccccc1)C(=O)N1CCCCC1)c1ccc(Br)o1,15.8%
4,N#CC1=C(N)Oc2cc(O)c(C=Nc3ccccc3)cc2C1c1ccccc1 (centres unmarked),-4.45%
5,O=[N+]([O-])c1ccc(Sc2n[nH]c(-c3ccncc3)n2)nc1,14.4%
6,COc1ccc(C(=O)OCc2csc(C)n2)c(O)c1,0.732%
7,Cc1cc(NC(=O)Cn2nnc3sc4c(c3c2=O)CCCC4)no1,9.97%
8,COc1ccc(S(=O)(=O)N(CC(=O)NCCSc2ccccn2)c2ccccc2)cc1,7.58%
9,Cc1ccccc1OCC(=O)Nc1cc(Cl)ccc1Oc1ccccc1,0.121%
10,COC(=O)C1=C(c2c(C)noc2C)C[C@@H]2CC[C@H]1N2C(=O)NCC1CC1,13.6%
11,CCOC(=O)c1c(C)n(Cc2ccc3c(c2)OCO3)c2ccc(O)cc12,6.78%
12,CC(OC(=O)CCc1nc2ccccc2c(=O)[nH]1)C(=O)c1ccc(Br)cc1 (centres unmarked),-36.4%
13,CCOC(=O)c1c(NC(C)=O)sc2c1CCN(Cc1ccccc1)C2.Cl,-20.5%
14,CC(C)c1ccc(S(=O)(=O)N2CCN(C(=S)NCc3ccco3)CC2)cc1,0.194%
15,Br.CCCCCCCn1c(=N)n(CC(=O)c2ccco2)c2ccccc21,-70.6%
16,O=C(Cn1nnc2ccccc2c1=O)N[C@@H](Cc1ccccc1)C(=O)O,11.1%
17,COc1ccc(Oc2nnc(-c3ccc(C)cc3)c3ccccc23)cc1,5.64%
18,O=C(CNC(=O)c1cccnc1)N=Nc1c(O)[nH]c2c(Br)cc(Br)cc12,-40.2%
19,CCC1(c2ccc(OC)cc2)NC(=O)N(CC(=O)NC2CCCCC2C)C1=O (centres unmarked),-4.7%
20,Nn1c(SCc2cccc(F)c2)nnc1-c1cccnc1,9.33%
21,COc1ccc(C(=O)C2CCN(CC(=O)Nc3ccccc3F)CC2)cc1,-17.2%
22,COc1ccc(NC(=O)CN(C)C(=O)CSc2ccc(Br)cc2)cc1,2.32%

row,SMILES,"hERG current change (%, negative = inhibition) at 10uM"
1,O=C(CNC(=O)c1ccccc1F)N/N=C/c1ccco1,19.3%
2,Cc1noc(NS(=O)(=O)c2ccc(NC(=O)CCCOc3ccc(Cl)cc3Cl)cc2)c1C,6.36%
3,O=C(CN1C(=O)NC2(CCCC2)C1=O)NNC(=O)c1ccc(Br)cc1,-0.24%
4,N#Cc1cc(NCC2CCCO2)c([N+](=O)[O-])cc1C#N (centres unmarked),-20.1%
5,Cc1cc(C)n(-c2ccc(S(N)(=O)=O)cc2[N+](=O)[O-])n1,-1.17%
6,CC(C)C(NS(=O)(=O)c1ccc2c(c1)oc(=O)n2C)C(=O)N1CCN(C2CCCCC2)CC1 (centres unmarked),2.88%
7,Oc1ccccc1/C=N/Nc1ncc(Br)cn1,-0.366%
8,O=C(CSc1nc2scc(-c3ccco3)c2c(=O)n1-c1ccccc1)N1CCOCC1,-10.6%
9,CCCN(CCC)S(=O)(=O)c1ccc(C(=O)Nc2nnc(CSC)o2)cc1,0.929%
10,CCOc1ccc(C(=O)NC(=S)Nc2cccc(NC(=O)c3ccco3)c2)cc1[N+](=O)[O-],17%
11,COc1ccc(C(=O)Cn2cnc3ccccc3c2=O)c(OC)c1,-9.27%
12,Clc1ccsc1-c1csc(-c2cccnc2)n1,27.4%
13,Cc1ccnc(-n2c(C)cc(C=C3C(=O)N(C)C(=S)N(C)C3=O)c2C)c1,3.9%
14,O=C(NCCc1nnc2ccc(NCc3cccnc3)nn12)c1ccccc1F,8.6%
15,CC(C)N(Cc1nc2ccccc2c(=O)[nH]1)C(=O)c1ccc(NC(=O)CSc2nnnn2C)cc1,-4.55%
16,Cc1ccc(CNC(=O)CSc2nc(=O)n3ccccc3n2)cc1,-40.4%
17,CN1CCN(C(=O)CCN2C(=O)/C(=C/c3ccccc3Cl)SC2=S)CC1,9.65%
18,O=S(=O)(NCC(c1ccco1)N1CCN(c2ccccc2)CC1)c1ccc(F)cc1 (centres unmarked),0.0547%
19,CC1CC(C)CN(CCCNC(=O)CCNC(=O)Cn2cnc3ccccc3c2=O)C1 (centres unmarked),18%
20,Cc1ncsc1CCOC(=O)c1cccnc1.Cl,8.06%

# Source: article PMC4336329 (PLoS ONE, 2015)
